In all, about 310,000 compounds went through this assay and about 2,200 (0.71%) showed an effect of 50% or more. The effect is printed as a negative number. This is one part of the list.
These compounds were tested against human ether-à-go-go-related gene (hERG) potassium channel (human, UniProt Q12809) (assay: primary screen, population patch clamp on CHO cells stably expressing hERG).
Sequence of human ether-à-go-go-related gene (hERG) potassium channel (Q12809 whole entry, looked up): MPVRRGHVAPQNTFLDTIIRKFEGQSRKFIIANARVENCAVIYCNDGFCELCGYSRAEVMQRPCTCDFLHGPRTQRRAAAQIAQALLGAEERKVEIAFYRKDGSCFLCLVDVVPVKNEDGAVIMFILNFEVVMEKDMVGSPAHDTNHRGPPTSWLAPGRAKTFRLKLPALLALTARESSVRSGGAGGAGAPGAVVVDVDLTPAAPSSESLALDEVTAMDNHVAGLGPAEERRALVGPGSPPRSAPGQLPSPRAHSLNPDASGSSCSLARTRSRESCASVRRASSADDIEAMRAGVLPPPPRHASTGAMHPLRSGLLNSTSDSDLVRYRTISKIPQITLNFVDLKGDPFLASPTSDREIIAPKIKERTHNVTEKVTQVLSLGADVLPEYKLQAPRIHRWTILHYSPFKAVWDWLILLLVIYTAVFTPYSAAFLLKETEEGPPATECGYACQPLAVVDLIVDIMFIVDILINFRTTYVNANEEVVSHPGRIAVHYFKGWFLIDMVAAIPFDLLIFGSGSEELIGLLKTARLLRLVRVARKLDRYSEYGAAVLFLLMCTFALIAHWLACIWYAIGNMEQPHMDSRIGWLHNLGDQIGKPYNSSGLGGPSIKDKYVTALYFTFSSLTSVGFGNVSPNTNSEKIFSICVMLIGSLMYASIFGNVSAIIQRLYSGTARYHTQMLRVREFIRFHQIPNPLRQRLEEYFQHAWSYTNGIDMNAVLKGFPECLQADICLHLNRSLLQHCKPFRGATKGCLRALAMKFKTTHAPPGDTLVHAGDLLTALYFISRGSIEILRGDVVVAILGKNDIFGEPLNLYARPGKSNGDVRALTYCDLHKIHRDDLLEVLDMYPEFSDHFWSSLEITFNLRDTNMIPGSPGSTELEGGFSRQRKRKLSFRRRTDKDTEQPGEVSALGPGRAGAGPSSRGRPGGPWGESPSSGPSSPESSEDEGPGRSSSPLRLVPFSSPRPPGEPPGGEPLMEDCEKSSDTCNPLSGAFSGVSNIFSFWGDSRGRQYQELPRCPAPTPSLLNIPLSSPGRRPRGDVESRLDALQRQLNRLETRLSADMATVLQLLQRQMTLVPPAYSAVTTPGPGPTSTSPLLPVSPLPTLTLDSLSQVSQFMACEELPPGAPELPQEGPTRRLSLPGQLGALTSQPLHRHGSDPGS

Row | SMILES | hERG current change (%, negative = inhibition) at 1uM [%]
1 | Cc1ccc(C(=O)Nc2nnc(-c3cccs3)s2)cc1C | 7.89
2 | O=C(Nc1ccn(Cc2c(F)c(F)cc(F)c2F)n1)c1ccc(COc2ccc(Cl)cc2Cl)o1 | 7.71
3 | COc1cccc(-c2noc(CCC(=O)NCC3CCCO3)n2)c1 (stereo not shown) | 8.88
4 | O=C(NCCN1CCOCC1)c1ccccc1-c1ccccc1 | 5.47
5 | COc1cccc(CN(C)C(=O)C(CCSC)NS(=O)(=O)c2ccc3c(c2)OCCO3)c1OC (stereo not shown) | 6.03
6 | CC(=O)N1CCC(c2c[nH]c3ccccc23)CC1 | 14.8
7 | C[C@@H](CSc1ccc(Br)cc1)CN1CC[C@H](C(C)(C)C)CCC1=O | 13.1
8 | S=c1[nH]nc(-c2ccc3ccccc3n2)n1-c1ccccc1 | 22.2
9 | Cc1ccc(S(=O)(=O)NCC(C)NC(=O)CN2CCOCC2)cc1 (stereo not shown) | 16.3
10 | CCC(=NCCc1ccc(OC)c(OC)c1)c1ccccc1O | 16.9
11 | Cn1cc(C(=O)NC2CCCCCC2)c(=O)c2cc(S(=O)(=O)N3CCCC3)ccc21 | 5.63
12 | Cc1cccc(CN(C)CCc2ccccn2)c1 | -1.69
13 | O=C(N/N=C(\c1ccccc1)c1ccccn1)c1cccc([N+](=O)[O-])c1 | -15.5
14 | COc1cc2nc(N3CCN(C(=O)[C@H]4COc5ccccc5O4)CC3)nc(N)c2cc1OC | 0.273
15 | CCc1cccc(NC(=O)C2CCCN(S(=O)(=O)c3cnc[nH]3)C2)c1 (stereo not shown) | 10.6
16 | COc1ccc(-c2noc(-c3ccccc3F)n2)cc1 | 14.2
17 | CCOC(=O)C(CCC#N)(CCC#N)C(=O)OCC | 8.18
18 | CCCc1nc2nc(C)c(NS(=O)(=O)c3ccc4c(c3)CCCC4)c(=O)n2[nH]1 | 12.6
19 | COc1ccc(CNC[C@@H](CCCCN(C)Cc2ccc(OC)cc2)N2C[C@H](c3ccccc3)N(CCc3ccc(Cl)c(Cl)c3)C(=O)C2=O)cc1 | 11.2
20 | O=C(COC(=O)c1ccc2ncsc2c1)NCc1ccc(Cl)cc1 | 11.3
21 | COc1ccc(CCN2C(=NC(C)=O)SC3CS(=O)(=O)CC32)cc1OC (stereo not shown) | 11.1
22 | CC1Cc2cc(/C(O)=C3\C(=O)C(=O)N(CCN(C)C)C3c3ccccc3F)ccc2O1 (stereo not shown) | 10.5

Row | SMILES | hERG current change (%, negative = inhibition) at 1uM [%]
23 | CN1CCC(NC(=O)CCc2ccccc2)CC1 | 24.9
24 | CCc1ccc(NC(=O)CSC2=C(C#N)C(c3ccco3)C3=C(CCCC3=O)N2)cc1 (stereo not shown) | 2.99
25 | COc1ccc(S(=O)(=O)N(CCCN2CCCC2=O)Cc2cc3c(C)ccc(C)c3[nH]c2=O)cc1 | -3.03
26 | COc1ccc(CC(=O)NNS(=O)(=O)c2ccc([N+](=O)[O-])cc2)cc1OC | 16
27 | Cc1ccccc1/C(N)=N/OC(=O)c1cccs1 | 5.41
28 | Cn1c(N)c(C(=O)Nc2cccc(Cl)c2)c(=O)n(C)c1=O | 13.1
29 | CCCCOc1cccc(OCC(=O)Nc2nc3ccccc3[nH]2)c1 | 25.8
30 | O=C(CSc1ncnc2ccccc12)c1cccs1 | 7.28
31 | Cc1cccc(/C(N)=N/OC(=O)CCc2ccccc2)c1 | 9.46
32 | CSc1nsc(SCC(=O)Nc2ccc(C(N)=O)cc2)n1 | 14.3
33 | CN1CCN(C(=O)CCC(=O)c2ccc(F)cc2)CC1 | 8.17
34 | O=C(NN=C1CCC(c2ccccc2)CC1)c1ccccc1-n1cccc1 (stereo not shown) | 8.39
35 | CCn1c(=O)c2ccccc2n2c(SCC(=O)NCc3cccs3)nnc12 | 11.3
36 | COC(=O)c1sc(NC(=O)C2CCCO2)c(C(=O)OC)c1C (stereo not shown) | 12.2
37 | CCOC(=O)c1ccc(NC(=O)NC2CC3CCC(C2)N3C(=S)NC)cc1 (stereo not shown) | 12.6
38 | CCOc1cccc(/C(O)=C2/C(=O)C(=O)N(Cc3ccco3)C2c2ccncc2)c1 (stereo not shown) | 5.77
39 | Cc1ccccc1OCC(=O)NCCCNC(=O)c1ccco1 | 4.46
40 | O=C(NC(C(=O)N/N=C/c1cccnc1)c1n[nH]c(=O)c2ccccc12)c1ccccc1 (stereo not shown) | 6.62
41 | CCc1ccc(-n2c(C)n[nH]c2=S)cc1 | 11.1
42 | CCCN(C(=O)COC(=O)c1nc2nc(C)cc(C)n2n1)C1CCS(=O)(=O)C1 (stereo not shown) | 7.8
43 | O=C1[C@@H]2[C@H](C(=O)N1O)[C@H]1C=C[C@@H]2C1 | 1.44
